Assay results as given in paper PMC5492163.
No constants are given. Whether binding was seen depends on the method and setting. In cells and extracts the contact can be indirect. Some results given as binding are weak or reduced against the parent protein; the word gives no strength. Each block holds one molecule with its values, some of them ahead of it.

Protein sequences, listed by entry. Tags and fused reporters are not part of them. Residues count along the entry.
UniProt P11798: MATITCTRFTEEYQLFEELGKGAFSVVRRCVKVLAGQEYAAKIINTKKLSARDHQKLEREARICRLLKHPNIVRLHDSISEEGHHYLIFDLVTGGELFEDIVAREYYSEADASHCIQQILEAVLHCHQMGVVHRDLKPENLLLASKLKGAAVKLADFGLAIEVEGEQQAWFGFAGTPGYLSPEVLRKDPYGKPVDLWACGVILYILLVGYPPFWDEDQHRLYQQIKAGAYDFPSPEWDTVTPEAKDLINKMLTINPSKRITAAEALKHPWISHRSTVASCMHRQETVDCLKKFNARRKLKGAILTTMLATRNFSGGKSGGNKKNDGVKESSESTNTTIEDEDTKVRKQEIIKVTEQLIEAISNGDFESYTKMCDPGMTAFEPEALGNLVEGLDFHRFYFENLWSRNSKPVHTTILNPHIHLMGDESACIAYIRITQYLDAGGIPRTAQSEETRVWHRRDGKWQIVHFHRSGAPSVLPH
UniProt Q4ACU6: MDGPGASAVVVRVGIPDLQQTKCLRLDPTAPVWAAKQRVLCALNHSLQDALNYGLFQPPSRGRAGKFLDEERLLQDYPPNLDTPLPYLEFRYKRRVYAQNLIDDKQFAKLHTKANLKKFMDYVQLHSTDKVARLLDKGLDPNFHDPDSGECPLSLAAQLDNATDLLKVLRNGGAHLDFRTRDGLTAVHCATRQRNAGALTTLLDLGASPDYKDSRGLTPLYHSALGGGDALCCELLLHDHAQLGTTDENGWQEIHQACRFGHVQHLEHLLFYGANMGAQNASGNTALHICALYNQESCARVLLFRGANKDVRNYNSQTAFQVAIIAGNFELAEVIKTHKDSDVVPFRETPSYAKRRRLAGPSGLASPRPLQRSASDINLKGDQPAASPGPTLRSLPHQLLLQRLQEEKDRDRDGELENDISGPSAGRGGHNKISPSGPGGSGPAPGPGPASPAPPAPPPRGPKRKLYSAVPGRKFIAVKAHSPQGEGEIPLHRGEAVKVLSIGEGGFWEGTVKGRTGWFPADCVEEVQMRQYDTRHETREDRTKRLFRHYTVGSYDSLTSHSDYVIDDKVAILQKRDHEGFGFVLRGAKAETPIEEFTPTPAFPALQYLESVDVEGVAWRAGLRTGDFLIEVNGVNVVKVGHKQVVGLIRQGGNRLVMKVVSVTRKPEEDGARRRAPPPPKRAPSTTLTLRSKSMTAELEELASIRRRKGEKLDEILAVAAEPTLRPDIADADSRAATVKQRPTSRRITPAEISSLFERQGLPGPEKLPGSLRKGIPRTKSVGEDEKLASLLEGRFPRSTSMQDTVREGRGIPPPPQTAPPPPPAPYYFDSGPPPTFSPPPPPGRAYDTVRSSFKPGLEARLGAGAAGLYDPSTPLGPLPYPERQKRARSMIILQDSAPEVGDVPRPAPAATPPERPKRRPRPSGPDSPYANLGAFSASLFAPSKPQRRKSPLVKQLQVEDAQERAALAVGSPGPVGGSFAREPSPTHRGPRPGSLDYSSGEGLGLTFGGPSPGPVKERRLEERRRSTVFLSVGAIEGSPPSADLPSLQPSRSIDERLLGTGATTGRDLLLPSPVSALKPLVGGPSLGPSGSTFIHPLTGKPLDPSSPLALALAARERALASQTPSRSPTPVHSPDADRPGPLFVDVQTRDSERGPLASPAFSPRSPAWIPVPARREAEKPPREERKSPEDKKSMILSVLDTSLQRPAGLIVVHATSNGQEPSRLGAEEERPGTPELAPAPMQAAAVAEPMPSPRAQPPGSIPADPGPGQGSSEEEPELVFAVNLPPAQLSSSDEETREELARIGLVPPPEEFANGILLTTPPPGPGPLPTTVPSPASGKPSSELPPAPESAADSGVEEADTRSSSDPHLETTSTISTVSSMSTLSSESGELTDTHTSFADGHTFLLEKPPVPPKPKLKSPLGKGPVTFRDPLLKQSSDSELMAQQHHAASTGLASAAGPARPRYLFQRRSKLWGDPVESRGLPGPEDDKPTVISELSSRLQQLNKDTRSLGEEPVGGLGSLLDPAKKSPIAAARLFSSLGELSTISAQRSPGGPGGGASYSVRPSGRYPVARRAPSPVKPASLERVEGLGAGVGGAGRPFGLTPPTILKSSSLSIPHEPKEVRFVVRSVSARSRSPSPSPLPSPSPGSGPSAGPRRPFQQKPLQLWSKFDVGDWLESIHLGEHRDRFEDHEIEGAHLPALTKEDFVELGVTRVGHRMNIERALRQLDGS
UniProt Q01097, residues 27-1482: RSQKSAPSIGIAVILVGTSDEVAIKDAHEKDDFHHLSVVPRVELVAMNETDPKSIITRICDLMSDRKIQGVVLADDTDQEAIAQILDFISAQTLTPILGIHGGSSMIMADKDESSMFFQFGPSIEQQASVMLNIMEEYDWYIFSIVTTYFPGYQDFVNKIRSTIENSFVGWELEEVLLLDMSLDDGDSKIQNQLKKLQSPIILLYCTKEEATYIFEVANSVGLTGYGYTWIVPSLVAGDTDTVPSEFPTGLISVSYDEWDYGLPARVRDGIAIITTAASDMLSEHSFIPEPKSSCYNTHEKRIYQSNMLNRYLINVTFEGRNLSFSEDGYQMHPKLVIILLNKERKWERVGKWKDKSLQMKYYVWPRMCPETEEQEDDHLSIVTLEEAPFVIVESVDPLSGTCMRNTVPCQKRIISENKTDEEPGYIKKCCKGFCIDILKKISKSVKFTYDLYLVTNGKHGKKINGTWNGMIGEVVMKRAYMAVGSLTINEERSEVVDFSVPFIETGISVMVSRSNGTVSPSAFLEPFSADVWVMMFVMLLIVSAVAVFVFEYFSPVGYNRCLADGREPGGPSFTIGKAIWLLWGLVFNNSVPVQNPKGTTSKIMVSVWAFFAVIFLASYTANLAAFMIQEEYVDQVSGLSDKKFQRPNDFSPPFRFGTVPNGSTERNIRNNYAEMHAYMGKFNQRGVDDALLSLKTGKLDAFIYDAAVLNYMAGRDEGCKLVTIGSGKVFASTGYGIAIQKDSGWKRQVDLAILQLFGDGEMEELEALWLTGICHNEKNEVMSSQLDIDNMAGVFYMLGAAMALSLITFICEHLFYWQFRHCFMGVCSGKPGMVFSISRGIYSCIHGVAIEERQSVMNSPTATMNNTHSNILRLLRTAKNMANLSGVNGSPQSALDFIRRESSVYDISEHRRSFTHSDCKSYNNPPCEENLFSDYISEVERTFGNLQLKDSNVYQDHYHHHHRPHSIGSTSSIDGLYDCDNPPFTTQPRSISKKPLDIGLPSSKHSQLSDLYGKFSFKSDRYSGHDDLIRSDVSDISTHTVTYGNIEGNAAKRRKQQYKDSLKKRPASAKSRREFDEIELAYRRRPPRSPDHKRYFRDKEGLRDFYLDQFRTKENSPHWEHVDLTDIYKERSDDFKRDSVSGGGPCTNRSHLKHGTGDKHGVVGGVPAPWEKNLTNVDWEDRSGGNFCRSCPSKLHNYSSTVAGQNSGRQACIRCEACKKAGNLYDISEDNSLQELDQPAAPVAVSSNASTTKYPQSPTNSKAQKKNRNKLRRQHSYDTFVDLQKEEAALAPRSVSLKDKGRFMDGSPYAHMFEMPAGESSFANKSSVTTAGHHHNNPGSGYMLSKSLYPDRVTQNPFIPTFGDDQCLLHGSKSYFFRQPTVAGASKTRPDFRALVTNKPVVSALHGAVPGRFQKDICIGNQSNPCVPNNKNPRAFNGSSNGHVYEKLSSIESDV
UniProt O88196: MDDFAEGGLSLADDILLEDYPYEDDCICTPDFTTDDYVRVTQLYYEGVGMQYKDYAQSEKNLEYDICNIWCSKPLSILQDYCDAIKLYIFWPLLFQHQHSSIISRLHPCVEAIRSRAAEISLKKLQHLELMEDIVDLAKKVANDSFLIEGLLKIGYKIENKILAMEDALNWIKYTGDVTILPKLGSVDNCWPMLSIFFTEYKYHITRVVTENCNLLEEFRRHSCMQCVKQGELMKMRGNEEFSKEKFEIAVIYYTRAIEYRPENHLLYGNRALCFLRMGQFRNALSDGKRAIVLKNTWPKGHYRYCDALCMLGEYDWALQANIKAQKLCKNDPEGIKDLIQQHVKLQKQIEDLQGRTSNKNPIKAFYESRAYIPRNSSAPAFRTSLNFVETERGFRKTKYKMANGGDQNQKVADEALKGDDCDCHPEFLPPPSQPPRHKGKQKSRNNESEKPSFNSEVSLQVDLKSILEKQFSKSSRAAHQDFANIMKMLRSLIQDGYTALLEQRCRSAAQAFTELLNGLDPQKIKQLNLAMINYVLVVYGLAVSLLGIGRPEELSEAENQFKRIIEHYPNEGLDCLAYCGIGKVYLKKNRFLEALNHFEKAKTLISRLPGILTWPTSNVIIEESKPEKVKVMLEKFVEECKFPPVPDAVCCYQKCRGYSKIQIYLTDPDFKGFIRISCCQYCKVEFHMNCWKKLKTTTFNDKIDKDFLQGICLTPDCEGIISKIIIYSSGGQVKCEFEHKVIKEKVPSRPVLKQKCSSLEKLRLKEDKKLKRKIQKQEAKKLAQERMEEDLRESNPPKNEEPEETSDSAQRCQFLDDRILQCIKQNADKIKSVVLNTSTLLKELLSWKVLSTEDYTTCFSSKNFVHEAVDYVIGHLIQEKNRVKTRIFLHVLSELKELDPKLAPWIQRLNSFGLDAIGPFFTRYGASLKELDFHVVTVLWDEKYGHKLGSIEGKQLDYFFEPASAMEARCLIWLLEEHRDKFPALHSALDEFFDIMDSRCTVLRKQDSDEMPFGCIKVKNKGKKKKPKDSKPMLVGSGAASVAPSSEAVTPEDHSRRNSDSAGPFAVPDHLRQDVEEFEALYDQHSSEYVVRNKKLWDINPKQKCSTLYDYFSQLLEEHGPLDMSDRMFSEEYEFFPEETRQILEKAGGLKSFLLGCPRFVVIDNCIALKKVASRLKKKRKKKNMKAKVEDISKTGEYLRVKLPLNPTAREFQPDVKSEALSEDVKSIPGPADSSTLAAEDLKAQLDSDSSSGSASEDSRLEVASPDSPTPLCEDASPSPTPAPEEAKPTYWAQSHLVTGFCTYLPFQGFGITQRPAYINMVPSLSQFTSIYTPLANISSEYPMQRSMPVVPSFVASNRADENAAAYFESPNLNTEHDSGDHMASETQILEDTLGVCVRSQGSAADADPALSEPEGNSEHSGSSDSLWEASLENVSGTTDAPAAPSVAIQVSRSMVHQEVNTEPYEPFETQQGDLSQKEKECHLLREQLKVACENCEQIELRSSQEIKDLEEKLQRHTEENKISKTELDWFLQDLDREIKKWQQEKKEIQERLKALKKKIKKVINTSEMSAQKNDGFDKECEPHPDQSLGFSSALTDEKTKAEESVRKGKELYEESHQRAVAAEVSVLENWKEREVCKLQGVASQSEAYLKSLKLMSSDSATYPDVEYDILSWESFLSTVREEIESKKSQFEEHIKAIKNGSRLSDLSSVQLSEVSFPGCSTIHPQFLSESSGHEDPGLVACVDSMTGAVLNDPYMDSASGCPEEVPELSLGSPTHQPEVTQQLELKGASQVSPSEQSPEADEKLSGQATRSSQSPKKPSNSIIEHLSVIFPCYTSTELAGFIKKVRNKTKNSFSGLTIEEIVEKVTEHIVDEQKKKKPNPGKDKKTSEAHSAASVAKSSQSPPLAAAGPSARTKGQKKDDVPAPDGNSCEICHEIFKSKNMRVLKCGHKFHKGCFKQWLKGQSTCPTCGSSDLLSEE

Columns and labels:
[1] = molecular target: T1, p140Cap (mouse (endogenous in synaptosomes of the telencephalon)) (UniProt Q9QWI6); experiment: co-IP; p140Cap immunoprecipitated with Mab 2A8 on Dynabeads from crude synaptosomal extracts of WT and p140Cap KO mice; Western blot of the partners
T1 sequence: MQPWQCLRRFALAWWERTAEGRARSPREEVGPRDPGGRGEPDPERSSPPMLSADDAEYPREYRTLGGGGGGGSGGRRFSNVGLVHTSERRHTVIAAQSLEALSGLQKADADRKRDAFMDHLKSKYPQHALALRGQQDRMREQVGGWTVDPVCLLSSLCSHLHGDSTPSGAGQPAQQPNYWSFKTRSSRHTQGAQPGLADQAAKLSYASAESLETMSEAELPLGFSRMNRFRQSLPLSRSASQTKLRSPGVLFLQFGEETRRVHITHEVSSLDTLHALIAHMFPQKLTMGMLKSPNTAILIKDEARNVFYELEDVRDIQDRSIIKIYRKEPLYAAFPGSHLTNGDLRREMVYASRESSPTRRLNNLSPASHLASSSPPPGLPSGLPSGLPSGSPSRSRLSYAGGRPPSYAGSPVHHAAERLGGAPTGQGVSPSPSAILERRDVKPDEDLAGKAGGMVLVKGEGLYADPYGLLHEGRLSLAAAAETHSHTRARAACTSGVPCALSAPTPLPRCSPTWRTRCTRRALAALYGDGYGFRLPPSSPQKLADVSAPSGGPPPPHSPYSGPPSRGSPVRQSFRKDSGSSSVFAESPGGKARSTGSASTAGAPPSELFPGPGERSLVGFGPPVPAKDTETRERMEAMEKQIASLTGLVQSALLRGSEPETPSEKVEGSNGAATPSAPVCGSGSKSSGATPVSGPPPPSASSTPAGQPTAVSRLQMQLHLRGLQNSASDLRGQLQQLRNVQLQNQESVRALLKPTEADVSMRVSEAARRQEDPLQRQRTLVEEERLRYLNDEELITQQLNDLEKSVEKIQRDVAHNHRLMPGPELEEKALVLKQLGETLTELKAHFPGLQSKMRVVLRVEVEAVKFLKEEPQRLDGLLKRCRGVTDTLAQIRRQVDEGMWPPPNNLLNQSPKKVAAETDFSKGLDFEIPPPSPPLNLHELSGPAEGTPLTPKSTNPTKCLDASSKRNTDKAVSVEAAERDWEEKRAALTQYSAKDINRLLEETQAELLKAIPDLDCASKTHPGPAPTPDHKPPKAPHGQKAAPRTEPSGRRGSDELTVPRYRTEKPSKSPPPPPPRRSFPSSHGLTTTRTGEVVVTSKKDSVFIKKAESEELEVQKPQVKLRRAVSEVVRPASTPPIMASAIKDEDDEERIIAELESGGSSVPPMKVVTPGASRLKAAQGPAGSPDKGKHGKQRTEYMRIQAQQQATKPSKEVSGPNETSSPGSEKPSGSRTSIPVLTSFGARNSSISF

[2] = molecular target: Grin2a (mouse (endogenous in synaptosomes of the telencephalon)) (UniProt P35436); experiment: co-IP; reverse: Dlg4/PSD95 or Grin2a/NR2A immunoprecipitated from synaptosomes of WT and p140Cap KO mice, control IP with IgGs; Western blot for p140Cap

Molecule: Camk2a (from UniProt P11798 1-478) (enzyme)
binding [1]: binds

Molecule: Citron-N (from UniProt P49025-3 1-1597)
binding [1]: binds

Molecule: Shank3 (from UniProt Q4ACU6 1-1730)
binding [1]: binds

B1: p140Cap (protein, UniProt Q9QWI6 1-1250)
chain: T1 sequence
binding [2]: binds

B3: Shank2 (protein, UniProt Q80Z38 1-1476)
chain: MKSLLNAFTKKEVPFREAPAYSNRRRRPPNTLAAPRVLLRSNSDNNLNAGAPEWAVCSAATSHRSLSPQLLQQTPSKPDGATKSLGSYTPGPRSRSPSLNRLGGTAEDGKRTQPHWHVGSPFTPGANKDSLSTFEYPGPRRKLYSAVPGRLFVAVKPYQPQVDGEIPLHRGDRVKVLSIGEGGFWEGSARGHIGWFPAECVEEVQCKPRDSQAETRADRSKKLFRHYTVGSYDSFDAASDCIIEDKTVVLQKKDNEGFGFVLRGAKADTPIEEFTPTPAFPALQYLESVDEGGVAWQAGLRTGDFLIEVNNENVVKVGHRQVVNMIRQGGNHLILKVVTVTRNLDPDDTARKKAPPPPKRAPTTALTLRSKSMTAELEELGLSLVDKASVRKKKDKPEEIVPASKPSRTAENVAIESRVATIKQRPTSRCFPAASDVNSVYERQGIAVMTPTVPGSPKGPFLGLPRGTMRRQKSIDSRIFLSGITEEERQFLAPPMLKFTRSLSMPDTSEDIPPPPQSVPPSPPPPSPTTYNCPRSPTPRVYGTIKPAFNQNPVVAKVPPATRSDTVATMMREKGMFYRRELDRFSLDSEDVYSRSPAPQAAFRTKRGQMPENPYSEVGKIASKAVYVPAKPARRKGVLVKQSNVEDSPEKTCSIPIPTIIVKEPSTSSSGKSSQGSSMEIDPQATEPGQLRPDDSLTVSSPFAAAIAGAVRDREKRLEARRNSPAFLSTDLGDEDVGLGPPAPRMQASKFPEEGGFGDEDETEQPLLPTPGAAPRELENHFLGGGEAGAQGEAGGPLSSTSKAKGPESGPAAPLKSSSPAGPENYVHPLTGRLLDPSSPLALALSARDRAMQESQQGHKGEAPKADLNKPLYIDTKMRPSVESGFPPVTRQNTRGPLRRQETENKYETDLGKDRRADDKKNMLINIVDTAQQKSAGLLMVHTVDVPMAGPPLEEEEDREDGDTKPDHSPSTVPEGVPKTEGALQISAAPEPAVAPGRTIVAAGSVEEAVILPFRIPPPPLASVDLDEDFLFTEPLPPPLEFANSFDIPDDRAASVPALADLVKQKKNDTSQPPTLNSSQPANSTDSKKPAGISNCLPSSFLPPPESFDAVTDSGIEEVDSRSSSDHHLETTSTISTVSSISTLSSEGGESMDTCTVYADGQAFVVDKPPVPPKPKMKPIVHKSNALYQDTLPEEDTDGFVIPPPAPPPPPGSAQAGVAKVIQPRTSKLWGDVPEVKSPILSGPKANVISELNSILQQMNRGKSVKPGEGLELPVGAKSANLAPRSPEVMSTVSGTRSTTVTFTVRPGTSQPITLQSRPPDYESRTSGPRRAPSPVVSPTELSKEILPTPPPPSATAASPSPTLSDVFSLPSQSPAGDLFGLNPAGRSRSPSPSILQQPISNKPFTTKPVHLWTKPDVADWLESLNLGEHKETFMDNEIDGSHLPNLQKEDLIDLGVTRVGHRMNIERALKQLLDR
binding [1]: binds

B4: Homer1 (protein, UniProt Q9Z2Y3 1-366)
chain: MGEQPIFSTRAHVFQIDPNTKKNWVPTSKHAVTVSYFYDSTRNVYRIISLDGSKAIINSTITPNMTFTKTSQKFGQWADSRANTVYGLGFSSEHHLSKFAEKFQEFKEAARLAKEKSQEKMELTSTPSQESAGGDLQSPLTPESINGTDDERTPDVTQNSEPRAEPTQNALPFPHSAGDRTQALSHASSAISKHWEAELATLKGNNAKLTAALLESTANVKQWKQQLAAYQEEAERLHKRVTELECVSSQANAVHSHKTELNQTVQELEETLKVKEEEIERLKQEIDNARELQEQRDSLTQKLQEVEIRNKDLEGQLSDLEQRLEKSQNEQEAFRSNLKTLLEILDGKIFELTELRDNLAKLLECS
binding [1]: binds

The remaining lines, values ahead:

binding [1]: binds
Molecule: Grin2b (from UniProt Q01097 27-1482) (receptor)

binding [1]: binds
Molecule: Grin2a (from UniProt P35436 23-1464) (receptor)

binding [1]: no binding
Molecule: Ttc3 (from UniProt O88196 1-1979)

binding [1]: binds
B2: Cadm1/Syncam (protein, UniProt Q8R5M8 48-456)
chain: QNLFTKDVTVIEGEVATISCQVNKSDDSVIQLLNPNRQTIYFRDFRPLKDSRFQLLNFSSSELKVSLTNVSISDEGRYFCQLYTDPPQESYTTITVLVPPRNLMIDIQKDTAVEGEEIEVNCTAMASKPATTIRWFKGNKELKGKSEVEEWSDMYTVTSQLMLKVHKEDDGVPVICQVEHPAVTGNLQTQRYLEVQYKPQVHIQMTYPLQGLTREGDAFELTCEAIGKPQPVMVTWVRVDDEMPQHAVLSGPNLFINNLNKTDNGTYRCEASNIVGKAHSDYMLYVYDPPTTIPPPTTTTTTTTTTTTTILTIITDTTATTEPAVHDSRAGEEGTIGAVDHAVIGGVVAVVVFAMLCLLIILGRYFARHKGTYFTHEAKGADDAADADTAIINAEGGQNNSEEKKEYFI
